# From publication PMC4336329 (PLoS ONE, 2015)
# Screen size: about 310,000 compounds; about 14,000 (4.5%) showed an effect of 50% or more. The effect is printed as a negative number. This is one part of the list.
# Biological target: human ether-à-go-go-related gene (hERG) potassium channel (human, UniProt Q12809)
# Experiment: primary screen, population patch clamp on CHO cells stably expressing hERG
# 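Also: peak tail current of the secondary pulse compared with the same well before compound.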
# Chain of human ether-à-go-go-related gene (hERG) potassium channel (Q12809 whole entry, looked up): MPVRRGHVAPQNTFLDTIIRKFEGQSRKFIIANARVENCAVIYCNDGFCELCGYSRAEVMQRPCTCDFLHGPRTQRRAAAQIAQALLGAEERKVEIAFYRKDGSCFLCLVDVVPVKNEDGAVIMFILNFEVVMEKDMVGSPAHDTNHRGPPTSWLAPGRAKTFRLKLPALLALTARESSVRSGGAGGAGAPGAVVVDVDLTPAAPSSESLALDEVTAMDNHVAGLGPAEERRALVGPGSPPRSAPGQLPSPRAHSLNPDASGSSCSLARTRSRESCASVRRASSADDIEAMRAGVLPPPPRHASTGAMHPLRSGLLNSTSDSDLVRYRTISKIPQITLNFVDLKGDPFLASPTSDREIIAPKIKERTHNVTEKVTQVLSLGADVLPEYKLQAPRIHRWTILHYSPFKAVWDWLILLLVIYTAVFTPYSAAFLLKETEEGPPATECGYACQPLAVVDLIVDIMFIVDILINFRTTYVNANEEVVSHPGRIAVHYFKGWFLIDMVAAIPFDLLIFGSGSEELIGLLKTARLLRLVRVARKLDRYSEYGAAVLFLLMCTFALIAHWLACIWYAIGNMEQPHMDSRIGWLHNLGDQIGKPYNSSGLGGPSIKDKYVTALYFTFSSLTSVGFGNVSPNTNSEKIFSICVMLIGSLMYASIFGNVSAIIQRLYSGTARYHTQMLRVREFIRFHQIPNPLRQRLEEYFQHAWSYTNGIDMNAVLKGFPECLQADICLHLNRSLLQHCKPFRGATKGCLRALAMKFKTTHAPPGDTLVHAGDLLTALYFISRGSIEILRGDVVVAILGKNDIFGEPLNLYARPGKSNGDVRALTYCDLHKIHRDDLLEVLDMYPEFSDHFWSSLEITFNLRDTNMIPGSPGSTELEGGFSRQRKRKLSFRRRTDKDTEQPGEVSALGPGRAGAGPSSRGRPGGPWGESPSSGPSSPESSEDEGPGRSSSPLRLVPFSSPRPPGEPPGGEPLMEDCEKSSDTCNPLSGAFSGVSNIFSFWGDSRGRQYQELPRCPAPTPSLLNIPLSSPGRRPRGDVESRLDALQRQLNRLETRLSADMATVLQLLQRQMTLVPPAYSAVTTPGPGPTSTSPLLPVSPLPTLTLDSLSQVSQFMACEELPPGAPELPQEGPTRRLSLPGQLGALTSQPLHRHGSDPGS
row,SMILES,"hERG current change (%, negative = inhibition) at 10uM [%]"
1,c1ccc2c(c1)[nH]c1c(N3CCN(C4CCCCC4)CC3)ncnc12,-42.7
2,COc1ccc(C)cc1NS(=O)(=O)c1ccc(Br)s1,-5.73
3,CCN1CCN(C(=O)/C=C/c2ccc(C)o2)CC1,-8.76
4,Cc1ccc(NC(=O)CSC(N)=O)cc1Cl,7.5
5,Cc1c(C(=O)N2CCOCC2)sc(NC(=O)c2ccc([N+](=O)[O-])cc2)c1C#N,11.4
6,Cc1ccc2oc(-c3ccccc3)c(C(=O)O)c(=O)c2c1,-2.67
7,CC1CC2(CCCCC2)N2C(=O)C(=O)c3cccc1c32 (centres unmarked),-2.7
8,COc1ccc(CNC(=O)CCCOc2cc(=O)n(C)c3ccccc23)cc1,-19.2
9,Cc1ccc(N2C(=O)C(CC(=O)Nc3cccc(F)c3)N(CCc3ccncc3)C2=O)cc1 (centres unmarked),-52.3
10,O=S(=O)(NC(=NC1CCCCC1)c1ccccc1F)c1ccccc1,10.4
11,C[C@@H]1CC[C@H](O)/C=C/C(=O)O[C@H](C)CC[C@H](O)/C=C/C(=O)O1,6.34
12,Cc1ccc2cccc(NC3OC(=O)c4ccccc43)c2n1 (centres unmarked),12
13,CC(=O)c1ccc(NC(=S)N2CCC(O)CC2)cc1,25.5
14,Cc1cc(Cn2nc(C(=O)NCc3cccc(C(F)(F)F)c3)cc2-c2ccccc2)on1,-57
15,Fc1ccc(N2N=C(c3cccs3)CC2c2ccccc2)cc1 (centres unmarked),8.89
16,CC(C)COc1cccc(C(=O)NC(=S)NCc2cccnc2)c1,-13.1
17,COc1ccc(NC2CCCN(C(=O)c3cc(C)nc4cc(F)ccc34)C2)cc1 (centres unmarked),13.4
18,CCCCCCC(=O)N/N=C1\CCCc2ccccc21,-6.63
19,Cc1cc(C)n2nc(C(=O)OCC(=O)c3ccccc3Cl)nc2n1,-0.0673
20,O=C(CCn1c(=O)oc2ccccc21)NCCN1CCOCC1,-2.83

row,SMILES,"hERG current change (%, negative = inhibition) at 10uM [%]"
1,O=S(=O)(NC1c2cccc3cccc(c23)C1Sc1ncccn1)c1ccc(Cl)cc1 (centres unmarked),-1.02
2,Cc1ccc(-c2c(C#N)c(N)n3c(nc4ccccc43)c2C#N)cc1,4.85
3,Cc1cc2cc(C=O)c(Cl)nc2cc1C,16
4,CCOc1ccc(Cc2c(Cl)nc(SC)nc2N(C)C)cc1,-6.22
5,CCOC(=O)c1sc(/S(C)=N\S(=O)(=O)c2cccc(Cl)c2)c2c1CCC=C2 (centres unmarked),-51.9
6,CN(C)C(=S)NC(=O)C(c1ccccc1)c1ccccc1,13.5
7,CCCCOc1ccccc1NC(=O)Cn1c(-c2nonc2N)nc2ccccc21,2.58
8,Cc1ccc2c(c1)cc(CN(Cc1cccnc1)C(=O)c1ccccc1)c1nnnn12,-78
9,CC(C)N(C(=O)CS(=O)(=O)c1ccc(Cl)c(Cl)c1)C(C)C,0.756
10,COc1ccc(C(=O)Nc2ccc(Cn3ccnc3)cc2)cc1OC,7.54
11,COC(=O)c1ccc(C)c(NC(=O)COC(=O)C2CC3CCCC(C2)C3=O)c1 (centres unmarked),-12.9
12,CC(=O)N(C(C)=O)n1c(/C=C/c2cccc([N+](=O)[O-])c2)nc2ccccc2c1=O,15.1
13,CCN(CC)S(=O)(=O)c1ccc(OC)c(NC(=O)c2cccc([N+](=O)[O-])c2C)c1,-63.8
14,CCNc1nc(OC)nc(Oc2ccc(C(=O)OC)cc2)n1,2.62
15,CC(=O)N1CCC(N(C(=O)Nc2ccc(F)cc2)C2CCCC2)CC1,9.6
16,O=S(=O)(c1ccc2ccccc2c1)N(CC1CO1)c1ccccc1 (centres unmarked),0.482
17,COc1ccc(NC(=O)c2cc(S(=O)(=O)N3CCOCC3)cn2C)c(OC)c1,0.246
18,N#Cc1c(Cl)nc(Cl)c2c1CCN(Cc1ccccc1)C2,-4.13
19,COc1ccccc1OCC(=O)N1CCCC(N2CCN(c3ccc(F)cc3)CC2)C1 (centres unmarked),-52.9
20,Cl.O=C(c1ccco1)N1CCN(CCCCOc2cccc3ccccc23)CC1,-62.4

row,SMILES,"hERG current change (%, negative = inhibition) at 10uM [%]"
1,COc1ccc(Br)cc1/C=N/NC(=O)C(c1ccncc1)N1CCOCC1 (centres unmarked),7.87
2,CC(C)Nc1ccc(Nc2ccnc3cc4ccccc4cc23)cc1,-72.7
3,COC(=O)Cn1c(N2CCCC2)nc2c1c(=O)n(C)c(=O)n2C,17.8
4,O=C1CCN(S(=O)(=O)c2ccc(Br)cc2)CCN1,6.3
5,Cc1ccc(NC(=O)O/N=C/c2ccc(F)cc2)cc1,2.68
6,CN(C)CCNC(=S)Nc1cccc(Cl)c1,-27
7,CSc1ccccc1C(=O)OCC(=O)N1CCCC1=O,-13.4
8,Cc1cc(NCCCOC(C)C)n2c(nc3ccccc32)c1C#N,-0.271
9,Cc1ccc(S(=O)(=O)N(C)C)cc1NC(=S)N1CCc2ccccc21,11.5
10,CCCOc1ccc(S(=O)(=O)Nc2ccccn2)c2ccccc12,13.8
11,COC(=O)/C(=C/c1ccco1)NC(=O)c1ccco1,5.61
12,CNC(=S)N/N=C/c1ccccc1OCC(=O)O,18.4
13,O=c1[nH]cnc2scc(-c3ccc(-c4ccccc4)cc3)c12,14.1
14,O=C(CSc1nnc2ccccn12)Nc1cccc(S(=O)(=O)N2CCOCC2)c1,4.8
15,Cc1ccc(NC(=S)N(CCN2CCCCC2)Cc2ccco2)cc1C,-80.3
16,CC1CN(c2ccc([N+](=O)[O-])c(N3CCCCC3)c2)CCN1 (centres unmarked),-28.3
17,COc1ccc(OC)c2nc3c(cc12)CCC3,20.8
18,CCc1ccc(N(CC(=O)NC2CCCCC2)S(=O)(=O)c2c(C)noc2C)cc1,10.1
19,O=C(Nc1ncc(Br)s1)C1CCCN1S(=O)(=O)c1cccc2cccnc12 (centres unmarked),-3.36
